These are yes or no findings as the source states them, for the method shown. In cells and extracts the contact can be indirect. Some entries that bind do so weakly or less than the wild type. Sequences can lack the tags named with a protein.
T1: FLAG-tagged STAY-GREEN LIKE (SGRL-FLAG) (Arabidopsis thaliana) (UniProt Q94AQ9)
T1 sequence: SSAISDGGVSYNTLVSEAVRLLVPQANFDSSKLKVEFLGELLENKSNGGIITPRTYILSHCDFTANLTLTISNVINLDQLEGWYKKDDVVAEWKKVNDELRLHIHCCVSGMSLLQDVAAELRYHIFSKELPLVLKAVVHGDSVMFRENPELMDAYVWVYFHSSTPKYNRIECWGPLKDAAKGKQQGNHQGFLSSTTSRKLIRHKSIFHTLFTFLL

T2: FLAG-COP10 (35S:FLAG-COP10 transgenic plants) (Arabidopsis thaliana) (UniProt Q9LJD7)
T2 sequence: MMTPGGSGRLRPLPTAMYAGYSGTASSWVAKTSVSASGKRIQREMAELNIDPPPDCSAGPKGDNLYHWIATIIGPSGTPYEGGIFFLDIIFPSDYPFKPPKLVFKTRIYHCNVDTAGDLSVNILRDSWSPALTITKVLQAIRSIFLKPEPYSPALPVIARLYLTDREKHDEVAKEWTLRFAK

T3: COP10-cYFP (BiFC construct) (Arabidopsis thaliana) (UniProt Q9LJD7)
T3 sequence: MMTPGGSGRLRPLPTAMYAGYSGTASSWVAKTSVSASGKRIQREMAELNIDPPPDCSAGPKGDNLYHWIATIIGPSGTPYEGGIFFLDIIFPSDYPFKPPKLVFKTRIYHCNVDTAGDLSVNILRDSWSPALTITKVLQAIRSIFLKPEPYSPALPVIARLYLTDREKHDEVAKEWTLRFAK


What was measured:
[1] = target: T1, FLAG-tagged STAY-GREEN LIKE (SGRL-FLAG) (Arabidopsis thaliana); experiment: co-IP; total protein extracts of 35S:FLAG-COP10, 35S:HA-GI and 35S:SGRL-FLAG transgenic seedlings grown in SD, treated with MG132; FLAG-M2 magnetic beads; immunoblot with anti-HA
[2] = target: T2, FLAG-COP10 (35S:FLAG-COP10 transgenic plants) (Arabidopsis thaliana); experiment: as above
[3] = target: T3, COP10-cYFP (BiFC construct) (Arabidopsis thaliana); experiment: split reporter; BiFC, nEYFP and cEYFP fusion plasmids co-bombarded 1:1 into onion epidermal cells; MG132, 16-24 h at 22 °C in the light; confocal microscopy

binding [1] | binding [2] | binding [3] | Binder
no binding | binds | – | HA-GI (35S:HA-GI transgenic plants) (protein, UniProt Q9SQI2 1-1173) MASSSSSERWIDGLQFSSLLWPPPRDPQQHKDQVVAYVEYFGQFTSEQFPDDIAELVRHQYPSTEKRLLDDVLAMFVLHHPEHGHAVILPIISCLIDGSLVYSKEAHPFASFISLVCPSSENDYSEQWALACGEILRILTHYNRPIYKTEQQNGDTERNCLSKATTSGSPTSEPKAGSPTQHERKPLRPLSPWISDILLAAPLGIRSDYFRWCSGVMGKYAAGELKPPTIASRGSGKHPQLMPSTPRWAVANGAGVILSVCDDEVARYETATLTAVAVPALLLPPPTTSLDEHLVAGLPALEPYARLFHRYYAIATPSATQRLLLGLLEAPPSWAPDALDAAVQLVELLRAAEDYASGVRLPRNWMHLHFLRAIGIAMSMRAGVAADAAAALLFRILSQPALLFPPLSQVEGVEIQHAPIGGYSSNYRKQIEVPAAEATIEATAQGIASMLCAHGPEVEWRICTIWEAAYGLIPLNSSAVDLPEIIVATPLQPPILSWNLYIPLLKVLEYLPRGSPSEACLMKIFVATVETILSRTFPPESSRELTRKARSSFTTRSATKNLAMSELRAMVHALFLESCAGVELASRLLFVVLTVCVSHEAQSSGSKRPRSEYASTTENIEANQPVSNNQTANRKSRNVKGQGPVAAFDSYVLAAVCALACEVQLYPMISGGGNFSNSAVAGTITKPVKINGSSKEYGAGIDSAISHTRRILAILEALFSLKPSSVGTPWSYSSSEIVAAAMVAAHISELFRRSKALTHALSGLMRCKWDKEIHKRASSLYNLIDVHSKVVASIVDKAEPLEAYLKNTPVQKDSVTCLNWKQENTCASTTCFDTAVTSASRTEMNPRGNHKYARHSDEGSGRPSEKGIKDFLLDASDLANFLTADRLAGFYCGTQKLLRSVLAEKPELSFSVVSLLWHKLIAAPEIQPTAESTSAQQGWRQVVDALCNVVSATPAKAAAAVVLQAERELQPWIAKDDEEGQKMWKINQRIVKVLVELMRNHDRPESLVILASASDLLLRATDGMLVDGEACTLPQLELLEATARAIQPVLAWGPSGLAVVDGLSNLLKCRLPATIRCLSHPSAHVRALSTSVLRDIMNQSSIPIKVTPKLPTTEKNGMNSPSYRFFNAASIDWKADIQNCLNWEAHSLLSTTMPTQFLDTAARELGCTISLSQ
– | – | binds | nYFP-MSI4 (MULTICOPY SUPPRESSOR OF IRA1 4/FVE, BiFC construct) (protein, UniProt O22607 1-507) MESDEAAAVSPQATTPSGGTGASGPKKRGRKPKTKEDSQTPSSQQQSDVKMKESGKKTQQSPSVDEKYSQWKGLVPILYDWLANHNLVWPSLSCRWGPQLEQATYKNRQRLYLSEQTDGSVPNTLVIANCEVVKPRVAAAEHISQFNEEARSPFVKKYKTIIHPGEVNRIRELPQNSKIVATHTDSPDVLIWDVETQPNRHAVLGAANSRPDLILTGHQDNAEFALAMCPTEPFVLSGGKDKSVVLWSIQDHITTIGTDSKSSGSIIKQTGEGTDKNESPTVGPRGVYHGHEDTVEDVAFSPTSAQEFCSVGDDSCLILWDARTGTNPVTKVEKAHDADLHCVDWNPHDDNLILTGSADNTVRLFDRRKLTANGVGSPIYKFEGHKAAVLCVQWSPDKSSVFGSSAEDGLLNIWDYDRVSKKSDRAAKSPAGLFFQHAGHRDKVVDFHWNASDPWTIVSVSDDCETTGGGGTLQIWRMSDLIYRPEEEVVAELEKFKSHVMTCASKP
